Some of the results follow. Repeats are few or missing, and single values can be far off.
system: WM451Lu; experiment: cell count relative to DMSO control; melanoma cells; higher = more viable cells; conditions: library dose: low library concentration; 72 h
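Note: cell number obtained by counting DAPI-stained nuclei in high-throughput microscope images with image analysis software, screen run in 1,536-well plates.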

SMILES	cell count [%]
C[C@]12O[C@H](C[C@]1(O)CO)n1c3ccccc3c3c4c(c5c6ccccc6n2c5c31)CNC4=O [Lestaurtinib] + O=C(Nc1cccc(Cl)c1)Nc1ncc(CCNc2ncnc3ccsc23)s1 [SNS314] (first compound 0.004 µM, partner dose 0.0008 µM)	95.1
C[C@]12O[C@H](C[C@]1(O)CO)n1c3ccccc3c3c4c(c5c6ccccc6n2c5c31)CNC4=O [Lestaurtinib] + Cc1cc(SCc2sc(-c3ccc(C(F)(F)F)c(F)c3)nc2C)ccc1OCC(=O)O [GW0742] (first compound 0.004 µM, partner dose 2 µM)	110
N.N.[Cl][Pt][Cl] [cisplatin] + C=CCNC1=C2C[C@@H](C)C[C@H](OC)[C@H](O)[C@@H](C)/C=C(\C)[C@H](OC(N)=O)[C@@H](OC)/C=C\C=C(/C)C(=O)NC(=CC1=O)C2=O [Tanespimycin] (first compound 1.6 µM, partner dose 0.002 µM)	96.6
C[As](C)SC[C@H](NC(=O)CC[C@H](N)C(=O)O)C(=O)NCC(=O)O [Darinaparsin] + Cn1c(Nc2ccc(C(F)(F)F)cc2)nc2cc(Oc3ccnc(-c4ncc(C(F)(F)F)[nH]4)c3)ccc21 [CHIR265] (first compound 0.4 µM, partner dose 0.08 µM)	85.2
C[C@]12O[C@H](C[C@]1(O)CO)n1c3ccccc3c3c4c(c5c6ccccc6n2c5c31)CNC4=O [Lestaurtinib] + COc1ccc(-c2ccc3c(N4CCOCC4)nc(N4C[C@@H](C)O[C@@H](C)C4)nc3n2)cc1CO [KU0063794] (first compound 0.004 µM, partner dose 0.02 µM)	97.2
C[C@]12O[C@H](C[C@]1(O)CO)n1c3ccccc3c3c4c(c5c6ccccc6n2c5c31)CNC4=O [Lestaurtinib] + c1cc(-c2cnn3cc(-c4ccc(OCCN5CCCCC5)cc4)cnc23)ccn1 [Dorsomorphin] (first compound 0.004 µM, partner dose 0.4 µM)	76.1
C[As](C)SC[C@H](NC(=O)CC[C@H](N)C(=O)O)C(=O)NCC(=O)O [Darinaparsin] + Cc1ccc(NC(=O)c2cccc(N(C)C)c2)cc1NC(=O)c1ccc(O)cc1 [ZM336372] (first compound 0.4 µM, partner dose 2 µM)	112
C[C@]12O[C@H](C[C@]1(O)CO)n1c3ccccc3c3c4c(c5c6ccccc6n2c5c31)CNC4=O [Lestaurtinib] + CN(c1ncccc1CNc1nc(Nc2ccc3c(c2)CC(=O)N3)ncc1C(F)(F)F)S(C)(=O)=O [PF562271] (first compound 0.004 µM, partner dose 0.08 µM)	84.5
C[As](C)SC[C@H](NC(=O)CC[C@H](N)C(=O)O)C(=O)NCC(=O)O [Darinaparsin] + Cc1cc(SCc2sc(-c3ccc(C(F)(F)F)c(F)c3)nc2C)ccc1OCC(=O)O [GW0742] (first compound 0.4 µM, partner dose 2 µM)	98.2
C[C@]12O[C@H](C[C@]1(O)CO)n1c3ccccc3c3c4c(c5c6ccccc6n2c5c31)CNC4=O [Lestaurtinib] + CC(=O)c1c(C)c2cnc(Nc3ccc(N4CCNCC4)cn3)nc2n(C2CCCC2)c1=O [palbociclib] (first compound 0.004 µM, partner dose 0.04 µM)	87.2
N.N.[Cl][Pt][Cl] [cisplatin] + Cc1nc(Nc2ncc(C(=O)Nc3c(C)cccc3Cl)s2)cc(N2CCN(CCO)CC2)n1 [dasatanib] (first compound 1.6 µM, partner dose 0.004 µM)	93.1
Cn1cc(C2=C(c3cn(C4CCN(Cc5ccccn5)CC4)c4ccccc34)C(=O)NC2=O)c2ccccc21 [Enzastaurin] + O=C(O)c1ccc(-c2c[nH]c3ncc(-c4ccccc4)cc23)cc1C1CCCC1 [GSK650394] (first compound 0.8 µM, partner dose 0.16 µM)	136

Source: the supplement of paper PMC4604168 (melanoma cell lines)
